Assay results as given in paper PMC4336329 (PLoS ONE, 2015).
The campaign covered roughly 310,000 compounds. About 14,000 (4.5%) showed an effect of 50% or more. Effects have a minus sign here. The list shows a part of the results.

What follows are compounds tested against human ether-à-go-go-related gene (hERG) potassium channel (human, UniProt Q12809) (assay: primary screen, population patch clamp on CHO cells stably expressing hERG).
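Further: peak tail current of the secondary pulse compared with the same well before compound.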

Sequence of human ether-à-go-go-related gene (hERG) potassium channel (Q12809 whole entry, looked up): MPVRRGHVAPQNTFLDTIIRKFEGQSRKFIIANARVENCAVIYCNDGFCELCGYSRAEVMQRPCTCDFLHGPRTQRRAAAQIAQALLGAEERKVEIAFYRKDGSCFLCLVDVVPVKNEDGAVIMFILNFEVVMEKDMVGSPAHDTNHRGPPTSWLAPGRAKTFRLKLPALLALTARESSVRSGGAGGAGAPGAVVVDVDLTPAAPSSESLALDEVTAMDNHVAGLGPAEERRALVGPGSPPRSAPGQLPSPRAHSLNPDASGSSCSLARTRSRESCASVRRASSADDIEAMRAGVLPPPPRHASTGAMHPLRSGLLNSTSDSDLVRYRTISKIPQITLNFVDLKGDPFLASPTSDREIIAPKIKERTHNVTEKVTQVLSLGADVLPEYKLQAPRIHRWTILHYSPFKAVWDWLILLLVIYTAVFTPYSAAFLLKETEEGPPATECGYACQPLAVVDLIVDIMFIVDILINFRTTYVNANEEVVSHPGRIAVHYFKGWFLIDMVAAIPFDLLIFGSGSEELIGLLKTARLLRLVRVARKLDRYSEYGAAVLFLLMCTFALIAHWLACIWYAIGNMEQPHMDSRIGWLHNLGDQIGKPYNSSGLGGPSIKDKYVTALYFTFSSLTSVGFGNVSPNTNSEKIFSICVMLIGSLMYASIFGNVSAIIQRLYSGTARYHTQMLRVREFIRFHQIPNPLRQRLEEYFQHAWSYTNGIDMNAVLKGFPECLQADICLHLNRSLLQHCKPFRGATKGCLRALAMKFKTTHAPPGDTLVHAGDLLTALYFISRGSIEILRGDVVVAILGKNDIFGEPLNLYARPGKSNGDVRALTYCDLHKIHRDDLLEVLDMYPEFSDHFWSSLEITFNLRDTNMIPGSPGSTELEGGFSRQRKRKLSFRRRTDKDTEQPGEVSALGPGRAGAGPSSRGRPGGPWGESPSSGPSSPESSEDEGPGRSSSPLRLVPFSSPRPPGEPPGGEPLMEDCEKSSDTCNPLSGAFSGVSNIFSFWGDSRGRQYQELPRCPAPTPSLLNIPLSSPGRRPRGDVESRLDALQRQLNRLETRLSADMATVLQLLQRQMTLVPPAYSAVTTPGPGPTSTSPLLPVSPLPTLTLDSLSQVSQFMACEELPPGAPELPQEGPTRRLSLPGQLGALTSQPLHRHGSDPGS

Row | Structure (SMILES) | hERG current change (%, negative = inhibition) at 10uM [%]
1 | COc1ccc2cc(C(c3nnnn3C3CCCC3)N3CCc4ccccc4C3)c(=O)[nH]c2c1 (centres unmarked) | -28.8
2 | O=C(NC1CCCCC1)C1CCN(S(=O)(=O)c2cccs2)CC1 | 15.9
3 | Cn1ccs/c1=N\C(=O)Nc1cccc(C(F)(F)F)c1 | -2.49
4 | CC(=O)NC(=O)Nc1sc(=S)n(C)c1C | 14.1
5 | O=[N+]([O-])c1ccc2nc(-c3cccnc3)[nH]c2c1 | -12
6 | CC(C)c1ccc(NC(=O)CCNC(=O)N2C[C@H]3C[C@@H](C2)c2cccc(=O)n2C3)cc1 | 5.62
7 | Cc1ccc(NC(=S)N2CC(C)OC(C)C2)cc1C (centres unmarked) | 13.1
8 | NNc1nccc(Nc2ccccc2C(=O)O)n1 | 8.41
9 | COc1ccccc1-c1nnc(NC(C)=O)s1 | 3.11
10 | Cc1cccc(NC(=O)C(=O)NCc2ccc3c(c2)OCO3)c1C | -16.5
11 | Cc1cc(Nc2ccc(Br)c(C)c2)n2nc(C)nc2n1 | -35.5
12 | O=C(Nc1cc(C(F)(F)F)ccc1-n1cnc2ccccc21)c1ccccc1 | -32
13 | Cc1nc2ncnn2c(Nc2ccc3c(c2)OCCO3)c1C | 0.223
14 | CC1(C)CN=C(N(C(=O)Nc2ccccc2)c2ccccc2F)S1 | -2.49
15 | Cc1cccc(OCC(O)Cn2ccnc2C)c1 (centres unmarked) | -9.12
16 | CCOc1nc(-c2ccccc2)ccc1-c1noc(-c2ccncc2)n1 | 21.2
17 | Cc1cc(C(=O)OCC(=O)Nc2ccccc2[N+](=O)[O-])c2ccccc2n1 | 8.56
18 | CC(C)(C)NC(=O)NC(=O)COC(=O)Cn1cnc2ccccc2c1=O | -8.14
19 | COC(=O)c1c(NC(=O)CN2CCN(S(=O)(=O)c3ccccc3)CC2)sc2c1CCC(C)C2 (centres unmarked) | 9.27
20 | CCC(Sc1nncn1C)C(=O)Nc1cc(C)on1 (centres unmarked) | 1.27
21 | CCN(CC)c1nc(OC)nc(-n2nnc(C(C)=O)c2C)n1 | 1.29
22 | O=C(CN(Cc1ccco1)C(=O)c1ccccc1F)Nc1ccccc1C(F)(F)F | 2.3
23 | COc1ccc(N2C(=O)C3CCCN3C2c2ccc(F)cc2)cc1Cl (centres unmarked) | 3.03

Row | Structure (SMILES) | hERG current change (%, negative = inhibition) at 10uM [%]
24 | CC1CN(C(=O)COC(=O)COc2ccc(C#N)cc2)CC(C)O1 (centres unmarked) | 7.34
25 | Cn1cc([N+](=O)[O-])c(C(=O)Nc2ccc3c(c2)OCCO3)n1 | 5.3
26 | COc1ccc(NS(=O)(=O)c2c(C)n(C)c(=O)n(C)c2=O)cc1OC | 7.47
27 | O=C(c1cccc(Cl)c1)N1CCN(c2ncccn2)CC1 | 4.92
28 | COc1ccccc1CNC(=O)COC(=O)Cn1cnc2ccccc21 | 23.2
29 | CC(=O)c1ccc(N2CCN(C(=O)[C@H](C)NC(=O)c3ccccc3Cl)CC2)cc1 | -9.57
30 | Cc1cc(N2CCCc3ccccc32)n2ncnc2n1 | 6.99
31 | COC(=O)CN(c1cc([N+](=O)[O-])ccc1OC)S(C)(=O)=O | 14.4
32 | Cc1ccccc1OC(C)C(=O)Nc1ccc2c(c1)OCCO2 (centres unmarked) | -9.26
33 | CCOC(=O)C1CCCN(C(=O)C2CCN(S(=O)(=O)c3ccc4ccccc4c3)CC2)C1 (centres unmarked) | -23.3
34 | COc1ccccc1N1CCN(C2CCCN(Cc3ccccc3OCCO)C2)CC1 (centres unmarked) | -25.5
35 | CCOC(=O)C1CCCN(CC(=O)c2c[nH]c3ccc(C)cc23)C1 (centres unmarked) | -43.3
36 | CC(=O)Nc1cccc(NC(=O)C2CCCN2C(=O)Nc2ccccc2C)c1 (centres unmarked) | -0.921
37 | CCOC(=O)c1c(NC(=O)CSc2ncccn2)sc(C(=O)NC)c1C | -21.2
38 | O=C(CCN1C(=O)[C@H]2CC=CC[C@H]2C1=O)NCc1nc(-c2ccccc2)no1 | 16.1
39 | Cn1cc(SCC(=O)NCc2ccc3c(c2)OCO3)c2ccccc21 | -13.1
40 | COC(=O)c1ccc(N2CCN(S(=O)(=O)c3ccc4ccccc4c3)CC2)c([N+](=O)[O-])c1 | 19.6
41 | N/C(Cc1cccs1)=N\OC(=O)COc1ccc(Br)cc1Cl | -2.16
42 | CC(=O)c1cccc(OCCN2C(=O)NC(C)(C)C2=O)c1 | -2.54
43 | CC1=NNC(=O)c2ccccc2O1 | 21.7
44 | O=C(Nc1cccnc1Cl)c1cc(-c2ccco2)on1 | 22.6
45 | CN(C(=S)NC(=O)/C=C/c1ccc(F)cc1)C1CCCCC1 | 4.54
46 | CCCC1CCC(c2ccc(C(N)=O)cc2)CC1 (centres unmarked) | 6.91

Row | Structure (SMILES) | hERG current change (%, negative = inhibition) at 10uM [%]
47 | COc1ccc(Cl)cc1C(=O)Nn1c(-c2cccs2)nc2ccccc2c1=O | -5.47
48 | Cc1nn(-c2ccccc2)c2c1P(=O)(O)/C(=C1\N(C)c3ccccc3C1(C)C)C=N2 | 1.3
49 | O=C(NCc1nc2ccccc2[nH]1)C1=C[C@@H](c2ccc(C(F)(F)F)cc2)C[C@@H](OCc2ccc(CO)cc2)O1 | 21.8
50 | O=C(NCC(c1cccs1)N1CCOCC1)c1cc(Cl)ccc1[N+](=O)[O-] (centres unmarked) | -16.9
51 | O=C(NNC(=O)c1cccc(-n2cccc2)c1)c1ccc(F)cc1 | -2.56
52 | Cc1nc2ccc(C(=O)N/N=C/c3cc([N+](=O)[O-])ccc3O)cc2[nH]1 | 10.9
53 | O=C(CSc1nc2ccccc2c(=O)[nH]1)N1CCCCC1 | 0.0245
54 | CC(C)C(NS(=O)(=O)c1ccccc1F)C(=O)N1CCc2ccccc2C1 (centres unmarked) | 10.4
55 | COc1ccccc1N(CC(=O)NCCSc1ccc(Cl)cc1)S(C)(=O)=O | -6.87
56 | O=C1CCCN1c1cc(Cl)ccc1Cl | 2.17
57 | Cc1cc(C)c2c3c(sc2n1)C1(CCSCC1)C(C#N)=C(N)O3 | -18.4
58 | N#CC1=C(N)SC(N)=C(C#N)C1Cc1ccccc1 | 16.4
59 | O=C(/C=C/c1ccccc1)c1ccc2c(c1)OCCCCO2 | -2.95
60 | CCOC(=O)c1ccccc1NC(=O)C1CSC2(C)CCC(=O)N12 (centres unmarked) | -6.29
61 | CCOC(=O)c1[nH]c2cc3c(cc2c1NC(=O)CN1CC(C)CC(C)C1)OCO3 (centres unmarked) | 8.83
62 | CC(c1ccccc1)c1nnc(NC(=O)Nc2ccccc2F)s1 (centres unmarked) | 15.5
63 | COc1ccc2c(CC(=O)OCC(=O)N3CCc4ccccc43)coc2c1 | 2.48
64 | CCOc1ccc(-c2nnc(SCC(=O)NC3CC3)o2)cc1 | -4.15
65 | COc1ccccc1C(=O)N1CCN=C1SCc1cccnc1 | 7.45
66 | CN(CC(=O)Nc1cccc(F)c1)C(=O)CC1CCCCC1 | 11.5
67 | CCC(CC)NCc1ccc(OC)cc1OC | -20.4
68 | COc1cc(NC(=S)NC(=O)c2ccc(C)cc2C)ccc1NC(=O)c1cccs1 | 9.29
69 | Nc1c(Cl)cc(C2=NCCn3nc4ccccc4c32)cc1Cl | -11.3

Row | Structure (SMILES) | hERG current change (%, negative = inhibition) at 10uM [%]
70 | COc1cccc(N2CCN(S(=O)(=O)c3cccc4cccnc34)CC2)c1 | 15.5
71 | CCc1cc(=O)oc2c(C)c(OCC(=O)N3CCC[C@@H]3C(=O)O)ccc12 | 15.6
72 | NC(=O)CCCn1c(C(=O)c2cc(Cl)c(N)c(Cl)c2)c2ccc([N+](=O)[O-])cc2[n+]1[O-] | -30.9
73 | COc1cc(OC)cc(C(=O)N2CCCC(c3nc(-c4ccc(C)o4)no3)C2)c1 (centres unmarked) | -9.35
74 | FC(F)(F)c1cc(-c2ccco2)nc(-n2nnc3ccccc32)n1 | -3.29
75 | C=CCNc1ncnc2c1ncn2C1OC(CO)C(O)C1O (centres unmarked) | 16.9
76 | Cc1ccccc1OCc1ccc(C(=O)N2CC(C)OC(C)C2)o1 (centres unmarked) | -3.9
77 | COc1ccc(Cc2nc(C(=O)Nc3ccc(Cl)cc3)cs2)cc1 | -42.8
78 | CCC(=O)c1ccc(OCC(O)Cn2cnc3ccccc32)cc1 (centres unmarked) | -23.6
79 | Nc1ccccc1N=Cc1ccc(-c2cccc(Cl)c2)o1 | 10.5
80 | O=C(NNC(=O)C1C2C=CC(C2)C1C(=O)O)c1cc(Cl)ccc1O (centres unmarked) | 14.5
81 | COc1ccc(NC(=O)CN2C(=O)C(c3ccccc3)=NC23CCCCCC3)cc1OC | -2.36
82 | COc1cc(-c2csc(C)n2)ccc1O | 8.67
83 | CC(=O)n1cc([C@@H]2C=C(C(=O)Nc3ccccc3)O[C@H](OCCCCO)C2)c2ccccc21 | -54.5
84 | COc1ccc(O)c(C(=O)c2cnc3c(c2)CN(C)C(=O)N3)c1 | 5.34
85 | O=C(COc1ccccc1)NNC(=O)c1ccc(Cl)cc1 | 6.08
86 | CC(=O)n1cc(/C=C2/N=C(c3ccccc3)OC2=O)c2ccccc21 | 7.37
87 | COc1ccc([N+](=O)[O-])cc1NC(=O)C(C)OC(=O)c1ccccc1C(=O)c1ccc(Cl)cc1 (centres unmarked) | 1.68
88 | COc1ccccc1N1CCN(C(=O)Oc2ccccc2)CC1 | 1.61
89 | CC(C)Cn1c(N)c(C(=O)COC(=O)c2ccc(F)cc2)c(=O)n(C)c1=O | 17.1
